# Assay results as given in the supplement of paper PMC10338343.
# ± gives the standard deviation. The full ranking holds about 6,600 sequences; the median of “pre-steady-state target cleavage rate” is about 0.07, and the highest 2% start at about 0.72. The entries are a selection whose mix differs from that of the whole data set.
# Test system: MIWI (PIWIL1) piRISC loaded with Kctd7 piRNA (30 nt)
# Test: pre-steady-state target cleavage rate (min^-1); MIWI and MILI are mouse PIWI proteins and EfPiwi is from a freshwater sponge; tags in brackets are library labels; higher = faster piRNA-guided slicing of the target
# Conditions: guide: Kctd7 piRNA 5'p-UGUUAAUCUCUCAGAGAAGGUGACAGUGAU; auxiliary factor: 500 nM mouse GTSF1
# How it was run: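 Active affinity-purified piRISC carrying one synthetic guide (1 nM) was mixed with a transcribed, DNA-blocked target RNA library […] in HEPES–potassium acetate buffer at 33 °C for 0–8 or 0–960 min, with or without 500 nM GTSF1 partner protein. Uncleaved targets were then sequenced and normalised to depth and to weakly complementary targets. Three trials were pooled, and k3 was capped at 0.0001 min^-1. A burst-and-steady-state fit was applied to obtain the pre-steady-state cleavage rate.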
# 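Further: 1 nM active piRISC with 0.1 nM target library at 33 °C single turnover.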
row,Sequence,pre-steady-state target cleavage rate
1,AUCACUGAGUCCUUCUCUGAGAGAUUAUGA,0.0896 ± 0.022
2,UACACUGUCUCCUUCUCAGAGAGAUUAACA,0.319 ± 0.022
3,UAGUGACACACCUUCUCUGUGAGAUUUACA,0.077 ± 0.009
4,UAGACUGACACCUUCUCUGAGAGAUUAUGA,0.0717 ± 0.013
5,AUCACUGUCACCUUCUCUGAGAGACUUAACA,0.272 ± 0.027
6,UACACUGUCACGUUCUCUGACAGAUUAACA,0.0799 ± 0.012
7,UAGUGACUGACCUUCUCUGAGAGAUAAACA,0.102 ± 0.0097
8,UUCACUGUCACCUUCUCUGAGAGAUUAAGA,0.238 ± 0.037
9,UAGUGACAGACCUUCUCUGACAGAUAAACA,0.00666 ± 0.0029
10,AUCACUGUCACCUUCUCACAGAGAUUAAGA,0.00695 ± 0.0036
11,UACUCUGUCACCUUCUCUGAGAGAUUAUCA,0.207 ± 0.026
12,UUGACUGUCACCUUCUCUGAGAGUUUAACA,0.253 ± 0.035
13,UAGUGAGUCACCAUCUCUGAGAGAUAUUGA,0.00592 ± 0.0043
14,UAGUCUGUCACCUUCUCUCAGAGAUUAACA,0.121 ± 0.0091
15,UAGUCUGUCACCUUCUCUGAGACAAUAACA,0.0313 ± 0.0097
16,AUCACUGUCACCUUCACUGAGAGAAUAACA,0.261 ± 0.059
17,AUCACUCUCUCCUUCUCUGAGAGAUUAACA,0.4 ± 0.026
18,UAGACUGUCACCUUCUAUGAGAGAUUAACA,0.176 ± 0.018
19,AUGACUGUCACCUUCUCUGACAGAUUAACA,0.143 ± 0.016
20,AUCACUUCACCUUCUCUGAGAGAUUAACA,0.652 ± 0.038

row,Sequence,pre-steady-state target cleavage rate
1,UAGUGACACACCUUCUCUGAGACGAUUAACA,0.0061 ± 0.0026
2,UAGUGUGUGACCUUCUCAGAGAGAUUAACA,0.166 ± 0.011
3,UAGUGAGUCACACUUCUCUGAGAGAUUAACA,0.361 ± 0.018
4,UAGUGACUCACCUUCUGUGAGACAUUAACA,0.0496 ± 0.008
5,UAGACUGUCACGUUCUCUGAGAGAUUAACA,0.671 ± 0.042
6,UAGUGACACACCAUCUCUGAGAGAUUAAGA,0.0216 ± 0.006
7,UAGACUGUCACCUUCUCUGAGAGAUAAACA,0.355 ± 0.038
8,UAGUGAGUCACCCUUCUCUGAGAGAUUAACA,0.477 ± 0.041
9,UAGUGACAGUCCUUCUCAGAGAGAUUAUCA,0.0056 ± 0.0039
10,UAGUGACUGUGCUUCUCUGAGAGAUUAAGA,0.00915 ± 0.0029
11,UUCAGUGUCACCUUCUCUGAGAGUUUAACA,0.37 ± 0.059
12,UAGUGACAGUCCUUCUCUGAGAGCAUUAACA,0.0184 ± 0.0048
13,UACACUGUCAGCUUCUCUGUGAGAUUAACA,0.205 ± 0.013
14,UAGUGACAGUGCUUCUCUGAGAGAUUGAACA,0.00567 ± 0.0026
15,UUCACUGUCACCUUCUCUGUGAGAAUAACA,0.0493 ± 0.0095
16,UAGUGACACACCAUGUCUGAGAGAUUAACA,0.00514 ± 0.0044
17,UAGUCUGUCAGCUUGUCUGAGAGAUUAACA,0.103 ± 0.011
18,UUCACUGUCACCUUCUCUGAGGAGAUUAACA,0.0141 ± 0.0076
19,UAGACUGUCAGCUUCUCUGAGAGAAUAACA,0.167 ± 0.027
20,AUCACUGUCACCUUCUUUGAGAGAUUAACA,0.656 ± 0.033
